According to ChEMBL document CHEMBL4888484, “Replenishing the malaria drug discovery pipeline: Screening and hit evaluation of the MMV Hit Generation Library 1 (HGL1) against asexual blood stage Plasmodium falciparum ,using a nano luciferase reporter read-out” (2022):
Screen size: about 150,000 compounds; about 540 (0.36%) showed an effect of 50% or more. The list shows a part of the results.

Test system: Plasmodium falciparum
Assay: Primary screen in NF54 nanoGlo assay, in single point, at 2uM, 72h; a lower Z score goes with more inhibition
Assay type: functional, Erythrocyte
Settings: timepoint 72 hour

| Structure (SMILES) | % Inhibition [%] | Z score |
| --- | --- | --- |
| Cc1ccc(-c2nc(Cn3nnc(-c4nc(-c5ccc(F)cc5)no4)c3C)c(C)o2)cc1 | -1 | 0.11 |
| CC(Oc1ccc(Br)cc1)C(=O)N1CC[C@@H](N)C1 (some centres undefined) | -7 | 0.91 |
| Cn1ncc(C#N)c1NC(=O)C1CCN(S(=O)(=O)c2ccc(Cl)cc2)CC1 | 31 | -3.55 |
| O=C(NCc1ccc(-c2ccccn2)s1)c1ccccc1[C@H]1CCNC1 | 9 | -1.57 |
| O=C(C[C@@H]1C=CCCC1)N1CC(CF)C1 | -14 | 1.57 |
| CC(=O)N1CC[C@]2(CO)CN(C(=O)c3cccc(C(F)(F)F)c3)C[C@@H]2C1 | -13 | 1.87 |
| CCc1ncc(C(=O)N2CCN(c3ccc(OC)cc3)CC2)s1 | -29 | 3.45 |
| CC[C@@H](CNCc1cscn1)Oc1cccc(F)c1 | -11 | 1.68 |
| COc1cc(CNC2(c3nc(C)cs3)CCC2)ccc1Cl | 1 | -0.19 |
| COc1c(C)cnc(CN2CC[C@@]3(CCCN(CC4CCC4)C3=O)C2)c1C | -6 | 1.18 |
| N#Cc1ccc(NC[C@@H](CO)Cc2ccccn2)c(F)c1 | -14 | 1.22 |
| CC(=O)Nc1ccccc1CNC(=O)[C@]1(c2ccccc2)CCCO1 | -1 | 0.1 |
| COc1ccc(CNC(=O)c2sc(=S)n(-c3ccc(F)c(Cl)c3)c2N)cc1 | -8 | 1.03 |
| O=C(CN1CCCN(CC(=O)Nc2ccnn2C2CCCC2)CC1)Nc1ccnn1C1CCCC1 | -14 | 1.85 |
| CC(=O)N1CCN(c2ncccc2CNS(=O)(=O)N2CCCC2)CC1 | -21 | 1.88 |
| CCn1cc(S(=O)(=O)N2CC(c3nc(CCN(C)C(=O)c4ccncc4)no3)C2)cn1 | -10 | 1.25 |
| CC(C)(C)CN(CCCO)S(=O)(=O)N1CCCCCC1 | -9 | 0.95 |
| CCCn1cc(S(=O)(=O)N[C@@H](C)C2=CCCCC2)cn1 | -8 | 0.98 |
| CCOc1cc2cc(c1)C(=O)N(C)CC(=O)N[C@@H]1CN(CC(=O)Nc3cnn(C)c3)CC[C@@H]1OCc1cccc(c1)O2 | -1 | 0.18 |
| C[C@@H](CNC(=O)C1CCCN1C1CCOCC1)Oc1ccc(Cl)cc1 (some centres undefined) | -5 | 0.57 |
| CN1CCC2(CC1)CN(C(=O)c1ccccc1-c1ccccc1)CCCN2C | 1 | -0.1 |
| COc1cccc(N2C(=O)N(CC#N)S(=O)(=O)c3cccnc32)c1 | -5 | 0.52 |
